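96-well plates; 48 h exposure; 5 concentrations. Endpoints by linear interpolation between flanking doses. Not reached: highest tested concentration assigned. GI50 is the concentration that inhibits growth by half. Definition used: TGI = concentration required for complete inhibition of growth.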
What follows are compounds tested on NCI-H322M lung (assay: DTP human tumour cell line panel, 48 h).

**Q.** Which TGI does the source give for `CC1(C)C[C@@H]2C1CCC1(C)CC2(O)CC[C@H]1O` (stereo partly drawn) here?
**A.** > 100 µM

**Q.** With `Nc1nc(Nc2cccnc2)sc1C(=O)c1ccccc1F` as the compound, how does the GI50 read?
**A.** 2.74 µM

**Q.** What about the TGI of the same compound?
**A.** 17.8 µM

**Q.** How did the GI50 turn out when `CCNCCNc1cc(-c2ccc(C(F)(F)F)cc2)c(C#N)c2nc3ccccc3n12` was run?
**A.** 1.34 µM

**Q.** What about the TGI of the same compound?
**A.** 2.75 µM

**Q.** How did the TGI turn out when `CCO/C=N\C1=C(C#N)SC2=N/C(=C\c3ccc(OC)cc3)C(=O)N21` was run?
**A.** > 100 µM

**Q.** How did the TGI turn out when `CC(C)=CCC(O)[C@](C)(O)[C@H]1[C@H](O)C[C@@]2(C)[C@@H]3CCc4cc(O)c(OC5OC(CO)C(O)C(O)C5O)cc4C3(C)C(=O)C[C@]12C` (stereo partly drawn) was run?
**A.** > 100 µM

**Q.** For `Cc1cc2nc(C=C(C(F)(F)F)C(F)(F)F)oc2cc1C`, which TGI is on record?
**A.** 7.24 µM

**Q.** `C=C(C)[C@@H]1CC[C@]2(CO)CC[C@]3(C)[C@H](CC[C@@H]4[C@@]5(C)C=C(C#N)C(=O)C(C)(C)[C@@H]5CC[C@]43C)[C@@H]12` was tested. Which GI50 did it give?
**A.** 1.35 µM

**Q.** And the TGI?
**A.** 4.06 µM

**Q.** How did the TGI turn out when `O=C1c2ccccc2C(=O)C1(O)c1c[nH]c2ccccc12` was run?
**A.** > 100 µM

**Q.** With `CCC(=O)Oc1ccc2c(c1)c(=O)c1c(NCCCN(C)C)ccc3nnn2c31` as the compound, how does the TGI read?
**A.** 15.6 µM

**Q.** For `CC1CC2=C(S(=O)(=O)c3ccccc3)CC(S(=O)(=O)c3ccccc3)(S(=O)(=O)c3ccccc3)CC21` (stereo not drawn), which TGI is on record?
**A.** > 100 µM

**Q.** How did the GI50 turn out when `CC1=CC(=O)C=CC1=O` was run?
**A.** 24.2 µM

**Q.** And the TGI?
**A.** 132 µM

**Q.** For `CN1CCN(CCCNc2nc3ccc(Oc4ccc(NC(=O)Nc5cc(C(F)(F)F)ccc5F)cc4)cc3[nH]2)CC1`, which GI50 is on record?
**A.** 5.35 µM

**Q.** What about the TGI of the same compound?
**A.** 11.4 µM

**Q.** `COc1ccc(-c2[nH]c3ccc(OC)cc3c2/C=C(\C#N)S(=O)(=O)c2ccccc2)cc1` was tested. Which GI50 did it give?
**A.** 4.27 µM

**Q.** What about the TGI of the same compound?
**A.** > 100 µM

**Q.** For `CCOC(=O)c1ccc(NCc2ccc3oc(=O)c(-c4ccccc4)nc3c2)cc1`, which TGI is on record?
**A.** > 100 µM

**Q.** For `CC(=O)[C@@H](C)C(=O)N1C(=O)OC[C@@]12[C@@H]1CC[C@@H](C1)C2(C)C`, which TGI is on record?
**A.** > 100 µM

**Q.** For `Nc1ccc(Cc2c(N)[nH]c(=O)[nH]c2=O)cc1`, which TGI is on record?
**A.** > 100 µM

**Q.** For `COCc1nc2c(OC)c(-c3nc4nc(N5CCN(C)CC5)ccc4[nH]3)cc(OC)c2n1C`, which TGI is on record?
**A.** 55.3 µM

**Q.** How did the TGI turn out when `CCOC(=O)c1cn2c(n1)sc1cc(Cl)ccc12` was run?
**A.** > 100 µM

**Q.** For `CC(C)=C[C@H]1CCC2(OCCO2)[C@]1(C)CO`, which TGI is on record?
**A.** > 100 µM

**Q.** For `O=C1CC(c2cccc([N+](=O)[O-])c2)C2(C(=O)NC(=O)NC2=O)C(c2cccc([N+](=O)[O-])c2)C1` (stereo not drawn), which TGI is on record?
**A.** 77.2 µM

**Q.** How did the TGI turn out when `Nc1nc([O-])c2c(n1)[n+](C1OC(CO)C(O)C1O)cn2CCO` (stereo not drawn) was run?
**A.** > 100 µM

**Q.** How did the TGI turn out when `O=C1NC2O[C@H](CNC(=O)c3cc(Br)c[nH]3)CC2(O)N1` (mixture of isomers) was run?
**A.** > 100 µM

**Q.** How did the TGI turn out when `O=[N+]([O-])c1ccc(S(=O)(=O)n2c3ccc(Br)cc3c3nc4ccccc4nc32)cc1` was run?
**A.** > 100 µM

**Q.** For `CCCCC1Cc2ccccc2-c2nc3ccccc3n21` (stereo not drawn), which TGI is on record?
**A.** 33.3 µM

**Q.** With `c1ccc(CNc2nncc3[nH]cnc23)cc1` as the compound, how does the TGI read?
**A.** > 100 µM

**Q.** Which TGI does the source give for `COC(=O)[C@@]12C(=O)C=CC(=O)C1C1C(=CC2C)OC2OC3(CCCCC3)OC21` (stereo partly drawn) here?
**A.** 32.6 µM

**Q.** Which GI50 does the source give for `CC12OC(C(=O)C13CC3)C1C(=O)c3ccc4c(ccc5ccccc54)c3C(=O)C12` (stereo not drawn) here?
**A.** 23.4 µM

**Q.** What about the TGI of the same compound?
**A.** > 100 µM

**Q.** `N#C[C@@H](c1ccccn1)c1ncccc1[N+](=O)[O-]` was tested. Which TGI did it give?
**A.** > 100 µM

**Q.** How did the TGI turn out when `CC(=O)O[C@H]1CCC2[C@@H]3CC[C@]4(C)CC(=O)C=C[C@]4(C)C3CC[C@@]21C` (stereo partly drawn) was run?
**A.** > 100 µM

**Q.** How did the TGI turn out when `CNC(=S)/N=C(\N)N(C)C` was run?
**A.** > 100 µM

**Q.** For `CN(C)CCNc1ccc(CO)c2oc3ccc(O)cc3c(=O)c12`, which TGI is on record?
**A.** 29.8 µM

**Q.** `[N-]=[N+]=C1C(=O)NN=C1c1ccccc1` was tested. Which TGI did it give?
**A.** > 100 µM

**Q.** With `CSc1nnc(SC)nn1` as the compound, how does the TGI read?
**A.** > 100 µM

**Q.** For `CC(=O)Oc1ccc2cc(-c3ccccc3OC(C)=O)c(=O)oc2c1`, which TGI is on record?
**A.** > 100 µM

**Q.** Which TGI does the source give for `Cc1ccc([N+](=O)[O-])c2c(NCCC[N+](C)(C)[O-])c3ccccc3nc12` here?
**A.** 6.04 µM

**Q.** For `CC(C)c1c(O)c(O)c2c(c1O)C(=O)C(O)=C1C(C)(C)CCC[C@@]12C`, which TGI is on record?
**A.** 11.1 µM

**Q.** For `Clc1ccc(C[P+](c2ccccc2)(c2ccccc2)c2ccccc2)c(Cl)c1`, which TGI is on record?
**A.** 27.5 µM

**Q.** How did the TGI turn out when `CCOC(=O)CNC(=O)N(CC)C12CC3CC(CC(C3)C1)C2` was run?
**A.** 451 µM

**Q.** Which TGI does the source give for `Cc1ccc2c(c1)CC1(Cc3ccccc3C1=O)C2=O` (stereo not drawn) here?
**A.** > 100 µM

**Q.** For `Cc1ccc(NC(=O)c2cccc(C(C)(C)C#N)c2)cc1Nc1ccc2ncn(C)c(=O)c2c1`, which GI50 is on record?
**A.** 3.12 µM

**Q.** And the TGI?
**A.** > 100 µM

**Q.** Which TGI does the source give for `C[C@@H](c1ccccc1)n1c(N)c(C#N)c2ccc([N+](=O)[O-])cc2c1=O` here?
**A.** 57 µM

**Q.** `COc1ccc(C(=O)c2cc(C)c(OC)c(C)c2)cc1OC(=O)CCl` was tested. Which GI50 did it give?
**A.** 0.0102 µM

**Q.** And the TGI?
**A.** > 100 µM

**Q.** For `CCc1cc(Cc2cc(CC)c(NC(=O)C(=O)CC(=O)c3sc(-c4cccnc4)nc3C)c(CC)c2)cc(CC)c1NC(=O)C(=O)CC(=O)c1sc(-c2cccnc2)nc1C`, which TGI is on record?
**A.** > 100 µM

**Q.** `c1cnn(CN(Cn2cccn2)Cn2cccn2)c1` was tested. Which TGI did it give?
**A.** > 100 µM

**Q.** Which TGI does the source give for `Cc1ccc2c3c1O[C@H]1c4[nH]c5ccccc5c4C[C@@]4(O)[C@@H](C2)N(CC2CC2)CC[C@]314` here?
**A.** 32.2 µM

**Q.** `CCOC(=O)/C(C)=C(/O)C(=O)OCC` was tested. Which TGI did it give?
**A.** > 100 µM

**Q.** Which TGI does the source give for `C1=Cc2cc3c(c4nccc(c24)N1)OCO3` here?
**A.** 26.4 µM

**Q.** For `Cc1cc(NS(=O)(=O)c2ccc(Nc3c4ccccc4nc4c(C(=O)N5CCN(CCO)CC5)cccc34)cc2)no1`, which TGI is on record?
**A.** > 100 µM

**Q.** For `CCN1CCN(c2nc3ccccc3c3c2CCOc2ccccc2-3)CC1`, which TGI is on record?
**A.** > 66.7 µM

**Q.** Which GI50 does the source give for `COc1ccc(C(=O)c2cc(C)c(OC)c(C)c2)c(OC)c1O` here?
**A.** 0.0693 µM

**Q.** And the TGI?
**A.** > 100 µM

**Q.** `COc1cc(OC)c2c(C)cc(=O)oc2c1` was tested. Which TGI did it give?
**A.** > 100 µM

**Q.** `COc1c(C)cc2c(c1O)C1C3[C@H]4SC[C@@]5(NCCC6=C5NC5C=CC=CC65)C(=O)OCC(c5c6c(c(C)c(OC(C)=O)c54)OCO6)N3[C@@H](O)C(C2)N1C` (stereo partly drawn) was tested. Which TGI did it give?
**A.** 0.103 µM

**Q.** How did the TGI turn out when `COc1ccc(C2=C(Cl)c3cc(OC)c(OC)cc3C2Cl)cc1` (stereo not drawn) was run?
**A.** 33.3 µM

**Q.** For `O=C(CC(=O)n1nc(-c2ccccc2)c(N=Nc2ccc(Cl)cc2)c1-c1ccccc1)Nc1ccc(Cl)cc1`, which TGI is on record?
**A.** > 100 µM

**Q.** Which TGI does the source give for `CC1=CC(C)(C)N=C2SC(c3ccc(N)cc3)=NN12` here?
**A.** > 100 µM

**Q.** Which TGI does the source give for `Nc1nc(-[n+]2ccc(-c3ccncc3)cc2)nc(Cl)c1Cl` here?
**A.** > 100 µM

**Q.** How did the TGI turn out when `COc1c2c(cc3c1OCO3)[C@]13C=C[C@H](OC)C[C@H]1N(C2)CC3O` (stereo partly drawn) was run?
**A.** > 100 µM

**Q.** For `COC(=O)c1cc2c(cc1CC(Cc1ccc3c(c1)CCCC3)C(=O)OC)CCCC2` (stereo not drawn), which TGI is on record?
**A.** > 100 µM

**Q.** For `O=C(NCP(=O)(c1ccccc1)c1ccccc1)OCc1ccccc1`, which TGI is on record?
**A.** > 100 µM

**Q.** With `Clc1ccc(-c2cc3nc4ccccc4nc3o2)cc1` as the compound, how does the TGI read?
**A.** > 100 µM

**Q.** `N#C/C(=C/NC(N)=S)C(N)=O` was tested. Which TGI did it give?
**A.** > 100 µM

**Q.** Which TGI does the source give for `CCOC(=O)CC(C)C1(C(=O)OCC)CCCCC1=O` (stereo not drawn) here?
**A.** > 100 µM

**Q.** `NS(=O)(=O)c1ccc(-c2ccc3c(NC(=O)C4CC4)n[nH]c3c2)cc1` was tested. Which GI50 did it give?
**A.** > 25 µM

**Q.** And the TGI?
**A.** > 25 µM

**Q.** `O=C(Nc1cc(Cl)c(Cl)cc1Cl)C(=O)C1C(=O)NC(=S)NC1=O` was tested. Which TGI did it give?
**A.** > 100 µM

**Q.** `O=C(Nc1n[nH]c2cc(-c3ccccc3)ccc12)C1CC1` was tested. Which GI50 did it give?
**A.** > 25 µM

**Q.** What about the TGI of the same compound?
**A.** > 25 µM

**Q.** With `O=c1cc(NCC(O)CN2CCCC2)n(Cc2ccccc2)c(=O)n1Cc1ccccc1` (stereo not drawn) as the compound, how does the GI50 read?
**A.** 41.2 µM

**Q.** And the TGI?
**A.** > 100 µM

**Q.** Which TGI does the source give for `C=C(C)CCN[Si](c1ccccc1)(c1ccccc1)C(C)(C)C` here?
**A.** > 100 µM

**Q.** For `Cc1cc2ncnn2cc1Nc1ncc2c(n1)n(C1CCOCC1)c(=O)n2C`, which GI50 is on record?
**A.** 8.81 µM

**Q.** And the TGI?
**A.** > 100 µM

**Q.** How did the TGI turn out when `CN=C(SC)N(C)c1nc(=[N+](C)C)ss1` was run?
**A.** > 100 µM

**Q.** What does the source list for `COc1cc2ncnc(-n3ncc4cc(NC(=O)Nc5ccccc5)ccc43)c2cc1OC`?
**A.** GI50: 0.741 µM; TGI: 11.4 µM

**Q.** Which TGI does the source give for `O=C(c1cccs1)N1CCc2ccccc2C1` here?
**A.** > 100 µM

**Q.** Which TGI does the source give for `C(/C=C/Nc1ccc(Oc2ccccc2)cc1)=Nc1ccc(Oc2ccccc2)cc1` here?
**A.** 30.3 µM

**Q.** How did the TGI turn out when `O=C(Nc1ccccc1-c1nc2ccccc2[nH]c1=O)c1ccccc1` was run?
**A.** 60.6 µM

— PubChem BioAssay (NCI)
